{"source": "ChEMBL document CHEMBL1157539", "about": "“Thousands of chemical starting points for antimalarial lead identification” (Nature, 2010)", "note": "Whole data set: some 13,000 compounds, median “IFI” near 4, cut for the highest 2% near 17. This is one part of the list."}
{"assay": "GSK_TCMDC: Inhibition Frequency Index (IFI). The number of non-kinase HTS assays where a compound showed > 50 % inhibition, expressed as a percentage of the number of such assays in which the compound was tested (-0 is zero)", "assay_type": "functional", "units": {"IFI": "%"}}
{"smiles": "Cc1[nH]c(C)c(-c2ccc(-c3ccc(Cl)cc3)cc2)c(=O)c1Cl", "IFI": 0.76}
{"smiles": "C[C@@H]1CC[C@H](NC(=O)[C@H](CC2CCCC2)NC(=O)N2CCNCC2)C(=O)CN1S(=O)(=O)c1ccccn1", "IFI": 5.93}
{"smiles": "CC(C)c1cccc(C(C)C)c1NC(=O)NNC(=O)c1ccc(CCN2CCC(c3nc(COCC(F)(F)F)c(-c4ccc(F)cc4)o3)CC2)cc1", "IFI": 9.22}
{"smiles": "COc1ccc(Cc2cnc(N)nc2N)cc1OCCCOc1ccccc1", "IFI": 6.34}
{"smiles": "CC(C)C(C(=O)Nc1ccc2c(c1)OCO2)c1ccc(Cl)cc1", "note": "(configuration not stated)", "IFI": 9.18}
{"smiles": "O=C(COc1ccc(C(=O)c2ccccc2)cc1)Nc1nccs1", "IFI": 0}
{"smiles": "CNC(=O)c1cc(S(=O)(=O)N2CCN(c3ccccn3)CC2)c(C)s1", "IFI": -0}
{"smiles": "CC(Oc1ccc(NC(=O)c2cccs2)cc1)C(=O)c1ccc(Cl)cc1", "note": "(configuration not stated)", "IFI": 3}
{"smiles": "COc1ccc2c(=NN=Cc3ccccc3)cc(C)[nH]c2c1", "IFI": 0.74}
{"smiles": "O=C(Nc1ccc(-c2nc3ccccc3[nH]2)cc1)C1CCN(Cc2ccccc2)CC1", "IFI": 2.33}
{"smiles": "O=C(Nc1ccc(N2CCC(Nc3ccccn3)CC2)cc1)c1cnc(Cl)c(Cl)c1", "IFI": 17.4}
{"smiles": "O=C(N[C@@H](Cc1ccccc1)[C@H](O)CNCCC(F)(F)F)c1cccc(CCC2CC2)c1", "IFI": 6.1}
{"smiles": "COc1ccc(-c2cccc(NC(=O)c3ccc(Cl)cc3)c2)cc1CN1CCC(O)CC1", "IFI": 8.82}
{"smiles": "CCNC(=O)NC1CCN(Cc2c(-c3cccs3)nc3ccccc3c2C(=O)N[C@@H](C)C2CCCCC2)CC1", "IFI": 2.94}
{"smiles": "CCN(CC)/C(=N/C(=N)Nc1ccc(Br)cc1)NCCCCCCN/C(=N\\C(=N)Nc1ccc(Br)cc1)N(CC)CC", "IFI": 11.1}
{"smiles": "COc1ccc(NC(=O)NC2CCN(CCCOc3cc(C)nc4ccccc34)CC2)cc1OC", "IFI": 0}
{"smiles": "COc1ccc(-c2cccc(NC(=O)c3cccc(F)c3)c2)cc1CN1CCCN(C)CC1", "IFI": 7.77}
{"smiles": "CCNc1cc(C(=O)N[C@@H](Cc2cccc(Cl)c2)[C@H](O)CNC(C)CCCC(C)C)cc(N2CCCCS2(=O)=O)c1", "note": "(some centres not stated)", "IFI": 9.72}
{"smiles": "O=C1OC(c2ccccc2)(c2ccccn2)CN1C1CCN(Cc2cccn2-c2ccc(Cl)cc2)CC1", "note": "(configuration not stated)", "IFI": 3.42}
{"smiles": "O=C(C=Cc1ccc(Cl)c(Cl)c1)NCCCCCN1CCCC(CCCNC(=O)c2sc3ccccc3c2Cl)C1", "note": "(configuration not stated)", "IFI": 9.02}
{"smiles": "COc1ccc(NC(=O)Nc2ccc(-c3ccncc3)c(C(F)(F)F)c2)cc1N1CCN(C)CC1", "IFI": 0.7}
{"smiles": "CCn1ccc2c(N3CCCS3(=O)=O)cc(C(=O)N[C@@H](Cc3ccccc3)[C@H](O)CNC3CCCCC3)cc21", "IFI": 1.46}
{"smiles": "O=C(NNC(=O)c1ccc(CCN2CCC(c3nc(COCC(F)(F)F)c(-c4ccc(F)cc4)o3)CC2)cc1)Nc1ccc(Oc2ccccc2)cc1", "IFI": 2.84}
{"smiles": "CCCNCc1ccc(-c2ccc(CN(CCOC)C(=O)/C=C/c3ccccc3C)cc2)nc1", "IFI": 1.52}
{"smiles": "CCO[C@H]1CN[C@H](C#Cc2cc3c(Nc4ccc(OCc5cccc(F)c5)c(Cl)c4)ncnc3s2)C1", "IFI": 4.8}
{"smiles": "CN1CCN(c2ccnc3ccc(NC(=O)Nc4ccc(-c5ccncc5)c(C#N)c4)cc23)CC1", "IFI": 7.69}
{"smiles": "Cc1c[nH]c2ccc(/C=C/C(=O)NC3CCC(CCN4CCc5ccc(C#N)cc5CC4)CC3)cc12", "note": "(configuration not stated)", "IFI": 2.27}
{"smiles": "CCCCN(C(=O)c1ccccc1C)c1nnc(-c2ccccc2C)s1", "IFI": 2.56}
{"smiles": "COc1cc(C(F)(F)F)cc2[nH]c(CNCCCNc3nc4ccccc4[nH]3)cc12", "IFI": 9.35}
{"smiles": "S=C(Nc1cccc(Cl)c1)NC1CCN(c2ccnc3cc(Cl)ccc23)C1", "note": "(configuration not stated)", "IFI": 13.6}
{"smiles": "CN(C)C(=S)N/N=C1/C(=O)Nc2ccccc21", "IFI": 5.04}
{"smiles": "CC(C)Cc1csc(NC(=O)C=Cc2ccco2)c1C(=O)O", "IFI": 5.52}
{"smiles": "O=C(NC1CC1)c1ccc2cc(C(=O)N3Cc4ccccc4C(c4ccccc4)C3)ccc2c1", "note": "(configuration not stated)", "IFI": 2.96}
{"smiles": "CC(C)(C)c1ccc2[nH]c(-c3ccc(C(=O)NCc4cccc(C(F)(F)F)c4)cc3)nc2c1", "IFI": 2.96}
{"smiles": "COc1ccc2ncc(F)c(CCN3CC(O)C(CNCc4ccccc4)C3)c2n1", "note": "(configuration not stated)", "IFI": 2.94}
{"smiles": "CCn1c(-c2nonc2N)nc2c(-c3cccc(NC(=O)Nc4cccc(OC)c4)c3)ncc(OCCCN)c21", "IFI": 15.6}
{"smiles": "Cc1c(CNCCCNc2cc(=O)c3ccccc3[nH]2)sc(/C=N/O)c1Br", "IFI": 2.17}
{"smiles": "Cc1c(-c2cccc(C(C)(C)NCCCN3CCCCC3)c2)cnc(N)c1C", "IFI": 0.74}
{"smiles": "Cc1nc(N)nc(N)c1-c1cc(Cl)c(Cl)c(Cl)c1", "IFI": 2.29}
{"smiles": "CN(CCCCCN1CCC(NC(=O)Nc2ccc(Oc3ccccc3)cc2)C1)C(=O)/C=C/c1ccc(Cl)c(Cl)c1", "note": "(configuration not stated)", "IFI": 9.77}
{"smiles": "O=C(Nc1ccccc1)N(Cc1cccc(-c2cccc(CNCc3ccc4c(c3)OCO4)c2)c1)C1CCN(Cc2ccccc2)CC1", "IFI": 9.29}
{"smiles": "CN1CCC(N2CCN(Cc3cccc(-c4ccc(-c5nc6cc(F)ccc6[nH]5)cc4)c3)CC2)CC1", "IFI": 8.33}
{"smiles": "CS(=O)(=O)c1ccc(CCNCc2ccc(-c3ccc(CN(C(=O)C4CC(=O)c5ccccc54)C4CCN(Cc5ccccc5)CC4)cc3)nc2)cc1", "note": "(configuration not stated)", "IFI": 5.41}
{"smiles": "CC(CC(=O)NCC1(c2ccc(F)cc2Cl)CCOCC1)C(=O)c1ccc(Cl)cc1", "note": "(configuration not stated)", "IFI": 1.56}
{"smiles": "O=S(=O)(NCCN1CCCC1)c1ccc(-c2cccc(CNCc3ccsc3)c2)s1", "IFI": 6.9}
{"smiles": "O=C(NC1CCC(N2CCC(O)(c3ccc(F)cc3)CC2)CC1)c1cc2ccccc2[nH]1", "note": "(configuration not stated)", "IFI": 1.54}
{"smiles": "CC(C)N1CCC(N(Cc2ccc(-c3ccc(C(F)(F)F)cc3)cc2)C(=O)Cn2c(SCc3cccc(F)c3F)nc(=O)c3ccccc32)CC1", "IFI": 5.71}
{"smiles": "O=C(NCCc1ccccc1)N(Cc1cccc(-c2ccc(CNC3CCCC3)cc2)c1)C1CCN(Cc2ccccc2)CC1", "IFI": 7.86}
{"smiles": "CC1CN(c2cc(=O)n(Cc3ccc(NC(=O)Nc4ccc(-c5ccccc5)cc4)cc3)cn2)CC(C)N1", "note": "(configuration not stated)", "IFI": 2.9}
{"smiles": "Cc1cc(C)c(S(=O)(=O)N2CCCCC(c3cccc(C(F)(F)F)c3)=N2)c(C)c1", "IFI": 1.46}
{"smiles": "CCC(C)NS(=O)(=O)c1ccc2nc(Nc3ccc(C)cc3)n(C3CCCCC3)c2c1", "note": "(configuration not stated)", "IFI": 2.94}
{"smiles": "O=C(Nc1ccc(OC2CCN(Cc3ccccc3)C2)c(Cl)c1)c1cccs1", "note": "(configuration not stated)", "IFI": 6.06}
{"smiles": "COc1ccc(NC(=O)/C=C/c2cc(F)cc(C(F)(F)F)c2)cc1OCCN(C(C)C)C(C)C", "IFI": 3.7}
{"smiles": "c1ccc(CSC2=NNC(c3ccccn3)S2)cc1", "note": "(configuration not stated)", "IFI": 4.08}
{"smiles": "CCc1cn2c3c(cc(C(=O)N[C@@H](Cc4ccccc4)[C@H](O)CNCCOC)cc13)N(C)S(=O)(=O)CC2", "IFI": -0}
{"smiles": "COc1ccc2ncc(F)c(CCN3CCC(NCc4cc(OC)c5c(c4)OCCO5)CC3)c2n1", "IFI": -0}
{"smiles": "CN1CCCC1CNS(=O)(=O)c1ccc(C(=O)NCC2CC2)cc1", "note": "(configuration not stated)", "IFI": -0}
{"smiles": "COc1ccc(Nc2c3ccc(Cl)cc3nc3ccc(OC)cc23)cc1", "IFI": 5.11}
{"smiles": "COc1ccc2ncc(C#N)c(CCN3CCC(NCc4cnc5c(c4)OCCO5)CC3)c2n1", "IFI": 2.33}
{"smiles": "Cc1ccccc1C1CCN(C2CCC(NC(=O)/C=C/c3ccc(C(F)(F)F)cc3F)CC2)CC1", "note": "(configuration not stated)", "IFI": 13.3}
{"smiles": "CCCCN(CCCC)Cc1cc2ccccc2cc1O", "IFI": 2.22}
{"smiles": "Fc1ccccc1C=NN=c1cc[nH]c2ccccc12", "IFI": 1.45}
{"smiles": "O=C(NC1CCN(Cc2ccc(F)cc2)CC1)c1ccc(-c2cccc(C(F)(F)F)c2)s1", "IFI": 24.6}
{"smiles": "CCCCNC[C@@H](O)[C@H](Cc1ccccc1)NC(=O)c1cc(NCC)cc(N2CCCCS2(=O)=O)c1", "IFI": 1.47}
{"smiles": "Cc1sc(C)c(C(F)(F)F)c1CNCCCNc1cc(=O)c2ccccc2[nH]1", "IFI": 0.73}
{"smiles": "COc1ccc2nccc([C@@H](O)CN3CCC(NCc4ccc5c(n4)NCCC5)CC3)c2c1", "IFI": 0.88}
{"smiles": "CCC(C)OC(=O)C1=C(C)NC2=C(C(=O)CC(c3ccc(OC)c(OC)c3)C2)C1c1ccc(C)o1", "note": "(configuration not stated)", "IFI": 2.72}
{"smiles": "Nc1nc(N)c2nc(C3CC=CCC3)c(N)nc2n1", "note": "(configuration not stated)", "IFI": 2.84}
{"smiles": "Cc1cc2ccc(-c3cccc(CN)c3)cc2nc1N", "IFI": -0}
{"smiles": "Cc1ccc(CON2C(=N)N=C(N)NC2(C)C)cc1C", "IFI": 1.43}
{"smiles": "O=C(Oc1ccc(Cl)cc1C(=O)Nc1ccc([N+](=O)[O-])cc1Cl)c1ccccc1", "IFI": 22.4}
{"smiles": "O=C(c1ccc(-c2ccc(-c3nc4cc(C(F)(F)F)ccc4[nH]3)s2)cc1)N1CCN(CCc2ccccc2)CC1", "IFI": 5.66}
{"smiles": "Cc1ccc(Nc2nccc(N(C)c3ccc4c(c3)nc(NC(=O)Cc3ccc(Cl)c(Cl)c3)n4C)n2)cc1S(N)(=O)=O", "IFI": 9.16}
{"smiles": "COc1cc(CNCCCNc2nc(=O)c3sccc3[nH]2)c2[nH]cc(Cl)c2c1", "IFI": 5.88}
{"smiles": "COc1ccc2nccc([C@@H](O)CN3CCC(NCc4cc5c(cc4F)SCC(=O)N5)CC3)c2n1", "IFI": 3.1}
{"smiles": "COc1ccc2c(=NN=Cc3ccc(OC)c4ccccc34)cc(C)[nH]c2c1", "IFI": 2.14}
{"smiles": "Cc1cccc2nc(-c3ccc(-c4ccc(NC(=O)C(C)CN5CCN(C)CC5)cc4)s3)[nH]c12", "note": "(configuration not stated)", "IFI": 1.89}
{"smiles": "Oc1c(C(Nc2ccccn2)c2ccco2)cc(Cl)c2cccnc12", "note": "(configuration not stated)", "IFI": 22.6}
{"smiles": "CCc1c[nH]c2c(N3CCCC3=O)cc(C(=O)N[C@@H](Cc3ccccc3)[C@H](O)CNC3CCCCC3)cc12", "IFI": 2.19}
{"smiles": "O=S(=O)(c1c(Cl)cc(Cl)cc1Cl)N1CCCCC(c2ccc(C(F)(F)F)cc2)=N1", "IFI": 1.5}
{"smiles": "O=C(Nc1nc2cc(S(=O)(=O)NCc3ccc(Cl)c(Cl)c3)ccc2n1CCCN1CCCC1)c1ccc(Cl)cc1", "IFI": 8.05}
{"smiles": "O=C(Nc1cccnc1)c1cc(-c2cccnc2)nc2ccc(Cl)cc12", "IFI": 0}
{"smiles": "CC(C)(C(=O)Nc1ccc(N2CCC3(CCCN(CC4CC4)C3)CC2)c(Cl)c1)c1cccc(C(F)(F)F)c1", "IFI": 6.67}
{"smiles": "COc1ccc2nccc(N3CCN(CCNCc4ccc5c(n4)NC(=O)CO5)CC3)c2n1", "IFI": 0.72}
{"smiles": "CCNc1cc(C)nc(Nc2ccc(NC(=O)c3c(F)cccc3Cl)cc2)n1", "IFI": 18.2}
{"smiles": "O=C(C=Cc1ccc(Cl)c(Cl)c1)NCCCCCN1CCC(CCCNS(=O)(=O)c2ccc(F)cc2)CC1", "IFI": 8.63}
{"smiles": "Cc1nc2ccc([N+](=O)[O-])cc2c(=O)n1OCc1ccccc1", "IFI": 1.43}
